Where “and” joins values, the source holds several entries; their conditions need not be identical. Identical values can stand only once. Out of some 48,000 compounds screened, about 1,200 (2.5%) were called active. About 2% were inconclusive and are not listed.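 How the source made its calls: active means activation of at least 60% and not above a set upper limit (about 1 call in 100 departs from these limits); inconclusive means activation of 40% to 60%, or above that upper limit; inactive means activation under 40%.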 This is one part of the list.
Target: Probable G-protein coupled receptor 32 (Homo sapiens) (UniProt O75388)
Experiment: qHTS for Agonists of Human Resolvin D1 Receptor DRV1; further: 0% is about no effect
Settings: CHO-K1 GPR32 beta-arrestin PathHunter luminescence, 90 min; at 76.9 µM; hits give high values; zero percent set by DMSO-only wells
Outline: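 Step 1: seed CHO-K1 GPR32 beta-arrestin cells, 2,500/well, overnight at 37 °C. Step 2: add compounds, 90 min at 37 °C. Step 3: detection reagent, 1 h ambient, then luminescence.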

UniProt O75388, sequence (O75388 whole entry, looked up): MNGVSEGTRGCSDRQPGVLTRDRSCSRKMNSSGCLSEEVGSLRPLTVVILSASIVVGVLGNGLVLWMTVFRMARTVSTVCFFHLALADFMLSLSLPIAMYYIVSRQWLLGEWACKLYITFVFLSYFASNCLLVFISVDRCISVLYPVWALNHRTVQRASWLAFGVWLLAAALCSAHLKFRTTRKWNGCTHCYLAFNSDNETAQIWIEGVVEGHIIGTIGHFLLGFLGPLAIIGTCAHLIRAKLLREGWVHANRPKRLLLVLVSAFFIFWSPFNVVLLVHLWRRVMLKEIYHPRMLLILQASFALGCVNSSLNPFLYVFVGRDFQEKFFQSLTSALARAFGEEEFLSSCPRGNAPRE

activation, inactive:
CC(=O)c1ccc(NC(=O)CCOc2ccccc2)cc1 -11%
Cc1ccc(-n2nc3c(N4CCC(C(=O)NCc5ccccc5Cl)CC4)nnc(C)c3c2C)cc1 5.12%
CCN(CC)C(=O)Nc1ccc2c(c1)N(Cc1ccccc1)C(=O)c1ccccc1S2 -26%
COc1ccc(OC)c(S(=O)(=O)NCCc2csc(-c3cccc(F)c3)n2)c1 -18.1%
CCOC(=O)c1c(C)[nH]c(C)c1S(=O)(=O)NCC(=O)N1CCN(c2ccccc2OC)CC1 10.2%
Cc1ccc(-n2c(-c3ccco3)nc3c(cnn3-c3ccccc3Cl)c2=O)cc1 -2.56%
Cc1cccc(C(=O)Nc2nnc(S(=O)(=O)N(C)c3ccccc3C)s2)c1 31.7%
COc1ccc(CNC(=O)CCCn2nc(C)c3c(C)n(-c4ccccc4)nc3c2=O)cc1 -13.2%
COc1ccc(OC)c(NS(=O)(=O)c2ccc(-c3cc(C)no3)s2)c1 -8.45%
CCN(C(=O)CSc1nc(-c2ccc(C(C)C)cc2)no1)c1cccc(C)c1 -3.7%
CCc1ccc(CN2CCc3nc(N4CCN(CC)CC4)ncc3C2)cc1 -28.8%
CN(C)c1ccc(CNC(=O)CCn2cccn2)cc1 3.75%
COc1ccc(CCNS(=O)(=O)c2cc(-c3cc(C)no3)ccc2C)cc1OC -12.2%
O=C(Nc1cccc(F)c1)C1CCN(S(=O)(=O)c2cccc3nsnc23)CC1 4.36%
CCn1cc2nc(SCc3cccc(Cl)c3)n(Cc3ccc(C)cc3)c(=O)c2n1 -11.2%
Cc1ccc(Cl)cc1Nc1nn2c(=O)c3ccc(C(=O)N4CCCC(C)C4)cc3nc2s1 (stereo not drawn) 14.5%
CC(C)c1cnc2c(c1SCC(=O)Nc1cccc(F)c1)c(=O)n(C)c(=O)n2C -25.2%
c1ccc(CSc2nc3ncccc3[nH]2)cc1 5.04%
O=C(Nc1cccc(C(F)(F)F)c1)C1CCCN1S(=O)(=O)c1cccc2nsnc12 (stereo not drawn) -12.1%
Cc1cc(C)cc(OC(C)C(=O)Nc2c(C(=O)c3ccccc3)oc3ccccc23)c1 (stereo not drawn) -16.8%
Cc1ccc(CCNC(=O)c2ccc3c(c2)N(Cc2cccc(Cl)c2)C(=O)c2ccccc2S3(=O)=O)cc1 -22%
CSc1ccc(C2c3c(oc4cc(C)cc(C)c4c3=O)C(=O)N2Cc2ccco2)cc1 (stereo not drawn) -9.82%
CCCN(CCC)S(=O)(=O)c1ccc(C(=O)Nc2sc3c(c2C(=O)OC)CCN(CC)C3)cc1 0.422%
Cc1ccc(S(=O)(=O)N2CCC(C(=O)Nc3ccc(C)c(Cl)c3)CC2)cc1 21.6%
COc1ccc(C(=O)COC(=O)C(Cc2c[nH]c3ccccc23)NC(=O)c2ccc(C(C)(C)C)cc2)cc1 (stereo not drawn) 34.1%
Cc1cn2c(=O)cc(COC(=O)c3cccc(NC(=O)c4ccccc4C)c3)nc2s1 -17.3%
COc1ccc(-n2nc(C)c3c(C(F)(F)F)cc(-c4cccnc4)nc32)cc1 1.31%
CCOC(=O)c1c(C)[nH]c(C)c1S(=O)(=O)N1CCN(c2cccc(C(F)(F)F)c2)CC1 -9.57%
CCN(CC)C(=O)Cn1c(=O)n(-c2ccc(Cl)cc2)c(=O)c2c3c(sc21)CCC3 -15.4%
COc1ccc(CCNC(=O)C(=O)NCC(c2cccs2)S(=O)(=O)c2ccc(C)cc2)cc1 (stereo not drawn) 28.9%
O=C1c2[nH]nc(-c3ccccc3O)c2C(c2cccc(OCc3ccccc3)c2)N1CCO (stereo not drawn) 10.2%
CCOC(=O)c1cc(OC(=O)c2ccccc2C)n(-c2ccccc2)n1 41.9%
COCCCNC(=O)C1CCN(c2nc3ccc(C)cc3[nH]2)CC1 -5.04%
COc1cccc(N2CCN(C(=O)CCS(=O)(=O)c3ccc4c(c3)oc(=O)n4C)CC2)c1 26%
CC1(C)NC(=O)N(c2ccc([N+](=O)[O-])c(C(F)(F)F)c2)C1=O 20.1% and 17.3%
CCc1ccc(-n2c(=O)c3c4c(sc3n(CC(=O)N3CCC(C)CC3)c2=O)CCC4)cc1 -23.4%
CCc1nonc1NC(=O)c1oc2ccc(Br)cc2c1C 4.62%
Cc1ccc(Cl)cc1NC(=O)c1oc2ccc(S(=O)(=O)N3CCCCC3)cc2c1C -1.37%
Cc1ccc(NC(=O)C2CCCN(S(=O)(=O)c3cccc4cccnc34)C2)cc1 (stereo not drawn) -1.96%
Cc1ccc(Cl)cc1NC(=O)c1oc2ccc(S(=O)(=O)N(C)C3CCCCC3)cc2c1C -8.6%
Cc1ccc(S(=O)(=O)c2cn(Cc3cccc(C)c3)c3cc4c(cc3c2=O)OCO4)cc1 -8.2%
CCOC(=O)c1ccc(NC(=O)CSc2cc(=O)n(CC)c3ccccc23)cc1 -16.7%
Cc1nn(C(C)C(=O)N2CCN(c3ccc(Cl)cc3)CC2)c(=O)c2cc3occc3n12 (stereo not drawn) 7.98%
CC(=O)CSc1nnc2cc(C)c3cc(C)cc(C)c3n12 -28.6%
CCC(CC)C(=O)Nc1nnc(SCc2cc(=O)n3cccc(C)c3n2)s1 4.35%
CSc1ccc(/C=C/c2nc3ccccc3n2S(=O)(=O)c2cccc(Cl)c2)cc1 -7.84%
Cc1ccc2c(c1)c(=O)c(C(=O)c1ccc3c(c1)OCO3)cn2Cc1ccc(Cl)cc1 -21.5%
CCOc1ccc(CN(C(=O)c2cc(=O)c3cc(C)cc(C)c3o2)C2CCS(=O)(=O)C2)cc1 (stereo not drawn) -23.1%
COc1cc(NC(=O)CCc2c(C)nc3cc(-c4ccccc4)nn3c2C)cc(OC)c1OC -5.7%
O=C(NCCc1ccc(Cl)cc1)C(=O)NCC(c1ccco1)S(=O)(=O)c1ccc(Cl)cc1 (stereo not drawn) 2.75%
CCOc1ccc(CN2C(=O)c3ccccc3Sc3ccc(C(=O)O)cc32)cc1 -5.13%

activation, active:
CCCCCCc1ccc(O)cc1O 89.2%
CC(C)(c1ccc(O)cc1)c1ccc(O)cc1 64.1%

— PubChem BioAssay AID1346428 (National Center for Advancing Translational Sciences (NCATS), 2018)
